{"source": "PubChem BioAssay AID504832", "about": "(National Center for Advancing Translational Sciences (NCATS), 2011)", "note": "Among all 310,000 compounds or so, about 18,000 (5.8%) were called active. The shares of active, inactive and inconclusive entries below differ from those in the screen. The call rests on the fitted dose curve; in most records, active means well fitted inhibition curve with a large enough effect; inconclusive means small, poorly fitted or top-dose-only effect, or another doubt; inactive means no such curve, though single readings can be large or run the other way. No potency is given beside an inconclusive call; the fits are too rough. On the % scale 0 is the no-effect control and ±100 the full control effect; potency means the concentration at half of the fitted maximal effect; tags describe the fitted curve by direction and shape."}
{"experiment": "Primary qHTS for delayed death inhibitors of the malarial parasite plastid, 48 hour incubation", "details": "P. falciparum luciferase growth in erythrocytes; series mostly up to 28.7 µM; activity change, negative = inhibition: at the top concentration", "outline": "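Read-out is firefly luciferase luminescence from an integrated reporter in P. falciparum, so falling signal marks reduced parasite growth. Infected erythrocytes were at 2% hematocrit and 0.1% parasitemia (final) in Albumax-supplemented RPMI 1640.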"}
{"smiles": "COc1ccccc1N1CCN(CCCCNC(=O)c2ccc3ccccc3c2)CC1", "Potency": "inconclusive [inhibitor, partial curve]"}
{"smiles": "Cc1ccc(C(C(=O)NC2CCCC2)N(Cc2ccco2)C(=O)CCC(=O)Nc2ccccn2)cc1", "note": "(stereo not drawn)", "Potency": "inconclusive [inhibitor, single point]"}
{"smiles": "Cc1ccc(C(=O)CCS(=O)(=O)c2ccc(F)cc2)cc1", "activity change, negative = inhibition": "inactive: 0.317%"}
{"smiles": "COc1ccc(Cc2nc3ccc(C(=O)NCc4cc(C)no4)cc3o2)cc1", "Potency": "inconclusive [inhibitor, single point]"}
{"smiles": "Fc1cccc(-c2cc3nc4c(c(N5CCC6(CC5)OCCO6)n3n2)CCCC4)c1", "Potency": "active: 9.28 µM"}
{"smiles": "CCC(=O)NC(c1ccco1)c1cc(Br)c2cccnc2c1O", "note": "(stereo not drawn)", "Potency": "inconclusive [inhibitor, single point]"}
{"smiles": "C=CCOc1ccccc1CN1CCC(Oc2ccc(C(=O)N3CCCC3)cc2)CC1", "Potency": "inconclusive [inhibitor, single point]"}
{"smiles": "O=C(CN(c1ccc(Cl)cc1)S(=O)(=O)c1ccc(Cl)c([N+](=O)[O-])c1)NCCc1ccc(F)cc1", "Potency": "inconclusive [inhibitor, partial curve]"}
{"smiles": "Cc1cccc2c1OCC/C2=N\\NC(=O)COc1ccccc1", "activity change, negative = inhibition": "inactive: 81.7%"}
{"smiles": "O=C(CN1CCCCC1)Nc1cccc(Cl)c1", "Potency": "inconclusive [inhibitor, full curve, poor fit]"}
{"smiles": "CCCC(=O)NC(NC(=S)Nc1ccc(N=Nc2ccccc2)cc1)C(Cl)(Cl)Cl", "note": "(stereo not drawn)", "Potency": "inconclusive [inhibitor, single point]"}
{"smiles": "C(=N\\N1CCN(C2c3ccccc3-c3ccccc32)CC1)/c1cccnc1", "Potency": "inconclusive [inhibitor, partial curve, poor fit]"}
{"smiles": "Cc1cccc(-n2c(CNC(=O)COc3ccccc3)nnc2SCC(=O)Nc2nccs2)c1", "Potency": "inconclusive [inhibitor, single point]"}
{"smiles": "CC(C)Oc1ccc(C(CCNCc2ccc(O)cc2)c2ccccc2)cc1", "note": "(stereo not drawn)", "Potency": "active: 1.17 µM"}
{"smiles": "CCN1C(=NCC(C)C)N[C@@H](c2ccccc2)[C@H](C(=O)OC)[C@H]1C", "activity change, negative = inhibition": "inactive: 35.4%"}
{"smiles": "CC(C)c1ccc(C2C(C(=O)c3ccco3)=C(O)C(=O)N2CCN2CCOCC2)cc1", "note": "(stereo not drawn)", "activity change, negative = inhibition": "inactive: 9.51%"}
{"smiles": "Cc1cc2c(s1)c(C#N)c(C(=O)NCc1ccccc1F)n2C", "activity change, negative = inhibition": "inactive: -5.04%"}
{"smiles": "NC(=O)C1(C(N)=O)OC1c1ccc(Cl)c(Cl)c1", "note": "(stereo not drawn)", "activity change, negative = inhibition": "inactive: 1.87%"}
{"smiles": "Cc1ccc(S(=O)(=O)N2CCC(C(=O)Nc3ccc(C(C)C)cc3)CC2)cc1", "Potency": "inconclusive [inhibitor, single point]"}
{"smiles": "O=C(Nc1ccc(Cl)c(C(F)(F)F)c1)c1ccco1", "activity change, negative = inhibition": "inactive: 34.2%"}
{"smiles": "CC[C@]1(c2ccccc2)C(=O)N(C(=O)OC)N1C(=O)OC", "activity change, negative = inhibition": "inactive: 34.2%"}
{"smiles": "NC(=O)C1CCN(C(=O)c2ccc3c(=O)n(Cc4cccc(Br)c4)c(=S)[nH]c3c2)CC1", "Potency": "inconclusive [inhibitor, partial curve, poor fit]"}
{"smiles": "Cc1ccc(CN(C(=O)c2ccco2)C2CCS(=O)(=O)C2)cc1", "note": "(stereo not drawn)", "activity change, negative = inhibition": "inactive: -3.36%"}
{"smiles": "Cc1ccc(NC(=O)C(c2ccccc2)c2ccccc2)c(O)c1", "Potency": "inconclusive [inhibitor, single point]"}
{"smiles": "COC(=O)CC1C(=O)NCCN1C(=O)c1c(F)cccc1F", "note": "(stereo not drawn)", "activity change, negative = inhibition": "inactive: 0%"}
{"smiles": "Cc1ccc(NC(=O)COc2ccccc2C(=O)NCc2ccccc2)cc1", "Potency": "inconclusive [inhibitor, partial curve, poor fit]"}
{"smiles": "O=C(Oc1cccc2cccnc12)c1ccco1", "Potency": "inconclusive [inhibitor, single point]"}
{"smiles": "O=C(NC1CC2CCCC(C1)N2C(=O)Nc1ccccc1)C1CC1", "note": "(stereo not drawn)", "activity change, negative = inhibition": "inactive: 5.01%"}
{"smiles": "CS(=O)(=O)Nc1ccc(N2CCN(c3ccc(C(F)(F)F)cn3)CC2)nc1", "activity change, negative = inhibition": "inactive: 0.972%"}
{"smiles": "CC(=N)C1=C(O)CC(C)(C)CC1=O", "activity change, negative = inhibition": "inactive: -3.54%"}
{"smiles": "Cc1sc2ncnc(Sc3ccccc3C(=O)Nc3ccc(Br)cc3)c2c1C", "Potency": "active: 9.28 µM"}
{"smiles": "Cc1ccc(NS(=O)(=O)c2cc(C(=O)Nc3cccc([N+](=O)[O-])c3)ccc2C)cc1", "Potency": "inconclusive [inhibitor, single point]"}
{"smiles": "Cc1cc(C)n(-c2ccc(C(=O)Nc3ccc(S(=O)(=O)NCc4ccco4)cc3)cc2)n1", "Potency": "active: 13.1 µM"}
{"smiles": "NCCCn1c(C(=O)c2cc(Cl)c(N)c(Cl)c2)c2ccc(C(F)(F)F)cc2[n+]1[O-]", "Potency": "active: 6.57 µM"}
{"smiles": "S=C(Nc1cccc(Cl)c1)Nc1cccc2cnccc12", "activity change, negative = inhibition": "inactive: 0%"}
{"smiles": "S=c1nc(-c2ccc(Br)cc2)[nH]c2ccccc12", "Potency": "inconclusive [inhibitor, partial curve, poor fit]"}
{"smiles": "Cc1cc(S(=O)(=O)Nc2ccc(C(=O)NCCCN3CCCC3=O)cc2)ccc1F", "activity change, negative = inhibition": "inactive: 0.0025%"}
{"smiles": "COc1ccc(C(=O)COc2ncnc3cc(Cl)ccc23)cc1", "activity change, negative = inhibition": "inactive: 16.7%"}
{"smiles": "CC1CCC(CN2CCN=C2N(C)C)CC1", "note": "(stereo not drawn)", "Potency": "inconclusive [inhibitor, single point]"}
{"smiles": "CC(C)(C)NC(=O)C(c1c[nH]c2ccccc12)N(C(=O)Cn1nnc(-c2ccc(F)cc2)n1)c1cccc(O)c1", "note": "(stereo not drawn)", "Potency": "active: 2.62 µM"}
{"smiles": "C=C(C)COc1ccc(-c2nc(N)ncc2-c2ccc(Cl)cc2)c(O)c1", "Potency": "active: 13.1 µM"}
{"smiles": "Cc1ccc(-c2nnc(SCC(=O)Nc3ccccc3N3CCOCC3)o2)cc1", "Potency": "inconclusive [inhibitor, single point]"}
{"smiles": "O=C(NCC1CCCO1)C1c2ccccc2C(=O)N1C1CCCCCCC1", "note": "(stereo not drawn)", "Potency": "inconclusive [inhibitor, single point]"}
{"smiles": "O=C1OC(c2ccc3c(c2)OCO3)N(C(=O)c2ccc(Cl)c(Cl)c2)c2ccccc21", "note": "(stereo not drawn)", "Potency": "inconclusive [inhibitor, single point]"}
{"smiles": "Cc1nc([N+](=O)[O-])cn1-c1nc2ccccn2c1[N+](=O)[O-]", "activity change, negative = inhibition": "inactive: -1.23%"}
{"smiles": "COc1cccc(C(=O)N/N=C(\\C)c2cccc(NC(=O)c3ccc(F)cc3)c2)c1OC", "Potency": "inconclusive [inhibitor, single point]"}
{"smiles": "O=C(Cc1c(F)cccc1Cl)Nc1ccncc1", "activity change, negative = inhibition": "inactive: -0.336%"}
{"smiles": "Cc1c(C(=O)N2CCCc3ccccc32)oc2ccc(S(=O)(=O)N3CCOCC3)cc12", "Potency": "inconclusive [inhibitor, single point]"}
